From the RNAGym collection of RNA variant scans (doi:10.7554/elife.90254)
Read counts are not given, so values of variants with three or more changes are uncertain.

B1: OR4K15 (parent)
chain: GUUAACGGUCAUAGGCCAUGGAAACUAGGAGCACCAUUUCGCUGCCAGUGAAGAAAUGAACAAAGAAAAUCUGGGCCAGGCAGGCAUCAAAAGAAAUAGUCUUGCGCUCAACCAGAAAGUCUGUAAUCAUUUUAAGGGUA

Variants of: B1
Experiment: self-cleavage, relative activity (ratio to wild type); higher = more cleavage; in vitro, sequencing; the parent is a self-cleaving ribozyme
For GUUAACGGUCAUAGGCCAUGGAAACUAGGAGCGCCAUUUCGCUGCCAGUGAAGAAAUGAACAAAGAAAAUCUGGGCCAUGCAGGCAUCAAAAGAAAUAGUCUGGCGCCCAACCAGAAAGUCUGUAAUCAUUUUAAGGGUA [A33G G79U U103G U108C], the self-cleavage was 0.01. In the case of GUUAACGGUCAUAGGCCAUGGAAACUAGGAGCGCCAUUUCGCUGCCAGUGAAGAAAUUAGCAAAGAAAAUCUGGGCCAGGCAGGCAUCAAAAGAAAUAGUCUUGCGCUCAACCAGAAAGUCUGUAAUUAUUUUAAGGGUA [A33G G58U A60G C128U], the self-cleavage is reported as 0.73. GUUAACGGUCAUAGGCCAUGGAAACUAGGAGCGCCACUUCGCUGCCAGUGAAGAAAUGAACAAAGGAAAUCUGGGCCAGGCAGGCAUCAAAAGGAAUAGUCUUGCGCUCAACCAGAAGGUCUGUAAUCAUUUUAAGGGUA [A33G U37C A66G A94G A118G] showed a self-cleavage of 0.7. In the case of GUUAACGGUCAUAGGCCAUGGAAACUAGGAGCGCCAUGUCGCUGCCAGUGAAGAAAUGAACAAAGAAAAUCUGGGCCAGGCAGGCAUCAAAAGAAGUAGUCUUGCGCCCAACCAGAAAGUCUGUAGUCAUUUUAAGGGUA [A33G U38G A96G U108C A126G], the self-cleavage is reported as 0. Work on GUUAACGGUCAUAGGCCAUGGAAACUAGGAGCGCCACUUCGCUGCCAGUGAAGAAAUGAACAAAGAAAAUCUGGGCCAGGCAGGCAUCAAAAGAGAUAGUCCUGCGCUCAACCAGAAAGUCUGUAAUCAUUUUAAGGGUA [A33G U37C A95G U102C] yielded a self-cleavage of 1.72. Variant GUUAACGGUCAUAGGCCAUGGAAACUAGGAGCGCCACUUCGCUGCCAGUGAAGAAAUGAACAAAGAAAAUCUGGGCCAGGCAGGCGUCAAAAGAAAUAGACAUGCGCUCAACCAGAAAGUCUGUAAUCAUUUUAAGGGUA [A33G U37C A86G U100A U102A] has a self-cleavage of 0.1. Work on GUUAACGGUCAUAGGCCAUGGAAACUAGGAGCGCCAUUUCGCUGCCAGUGAAGAAAUGAACAAAGAAAAUCUGCGCCAGGCAGGCAUCAAAAGAAAUAGACUUGCGCUCAACCAGAAAGUCUGUAAUCAUUUUAAGGGUA [A33G G74C U100A] yielded a self-cleavage of 0.01. With GUUAACGGUCAUAGGCCAUGGAAACUAGGAGCGCCAUUACGCUGCCAGUGAAGAAGUGAACAAAGAAAAUCUGGGCCAGGCAGGCAUCAGAAGAAAUAGUCUUGCGCUCAACCAGAAAGUCUGUAAUCAUUUUAAGGGUA [A33G U39A A56G A90G] the self-cleavage was 1.42. Work on GUUAACGGUCAUAGGCCAUGGAAACUAGGAGCGCCAUCUCGCUGCCAGUGAAGAAAUGAACAAAGAGAAUCUGGGCCAGGCAGGCACCAAAAGAAAUAGUCUUGCGCUCAACCAGAAAGUCUGUAAUCAUUUUAAGGGUA [A33G U38C A67G U87C] yielded a self-cleavage of 1.02. With GUUAACGGUCAUAGGCCAUGGAAACUAGGAGCGCCAUCUUGCUGCCAGUGAAGAGAUGAACAAAGAAAAUCUGGGCCAGGCAGGCAUCAAAAGAAAUAGUCUUGCGCUCAACCAGAAAGUCCGUAAUCAUUUUAAGGGUA [A33G U38C C40U A55G U122C] the self-cleavage was 0.59. GUUAACGGUCAUAGGCCAUGGAAACUAGGAGCGCCACUUCGCUGCCAGUGAAGAAAUGAACAAAGAAGAUCUGGGCCAGGCAGGCAUCAAAAGAAAUAGUCUUGCGCUCAACCAGAAAGUCUGUAAUCAUUUUAAGGGUA [A33G U37C A68G] showed a self-cleavage of 0.81. Work on GUUAACGGUCAUAGGCCAUGGAAACUAGGAGCGCCACUUCGCUGCCAGUGAAGAAAUGAACAAAGAAAAUCUGGGCCAGGCAGGCAUCAAAAGAAAUAGUCUUGCGCUCAACCAGGAUGUCUGUAAUCAUUUUAAGGGUA [A33G U37C A116G A118U] yielded a self-cleavage of 0.04. GUUAACGGUCAUAGGCCAUGGAAACUAGGAGCGCCAUUUCGCUGCCAGUGAAUAAAUGAACAAAGAAAAUCUGGGCCAGGCAGGCAUCAAAAGAAAUAGUCUUGCGCUCAACCAGAAAGUCUGUAAUCAUUUAAAGGGUA [A33G G53U U133A] gave a self-cleavage of 0.97. GUUAACGGUCAUAGGCCAUGGAAACUAGGAGCGCCAUUUCGCUGCCAGUGAAGAAAUGAACAAAGAAAAUCUGAGCCAGGCAGGCAUCAAAAGAAAUAGUCUUGCGCUCAACCAGAGAGUCCGUAAUCAUUUUAAGGGUA [A33G G74A A117G U122C] gave a self-cleavage of 0.05. GUUAACGGUCAUAGGCCAUGGAAACUAGGAGCGCCAUUUCGCUGCCAGUGAAAAAAUGAACAAAGAAAAUCUGGGCCAGGCAGGCAUCAGAAGAAAUAGUCUCGCGCUCAUCCAGAAGGUCUGUAAUCACUUUAAGGGUA [A33G G53A A90G U103C A111U A118G U130C] showed a self-cleavage of 0. Work on GUUAACGGUCAUAGGCCAUGGAAACUAGGAGCGCCAUAUCGCUGCCAGCGAAGGAAUGAACAAAGAAAGUCUGGGCCAGGCAGGCAUCAAAAGAAAUAGUCUUGCGCUCAACCGGAAAGUCUGUAAUCAUUUUAAGGGUA [A33G U38A U49C A54G A69G A114G] yielded a self-cleavage of 0.16. GUUAACGGUCAUAGGCCAUGGAAACUAGGAGCGCCAUAUCGCUGUCAGUGAAGAAAUGAACAAAGAAAACCUGGGCCAGGCAGGCAUCAAAAGAAAUAGUCCUGCGCUCAACCAGAAAGUCUGUAAUCAUCUUAAGGUUA [A33G U38A C45U U70C U102C U131C G138U] gave a self-cleavage of 0.71. GUUAACGGUCAUAGGCCAUGGAAACUAGGAGCGCCACUUCGCUGCCAGUGAAGAAAUGAACAAAGAAAAUCUGGGCCAGGCAGGCGUCAAAAGAAAUAGUCUUGCGCCCAACCAGAAAGUCUGUAAUCAUUUUAAGGGUA [A33G U37C A86G U108C] gave a self-cleavage of 0.02. For GUUAACGGUCAUAGGCCAUGGAAACUAGGAGCGCCACUUCGCUGCCAGUGAAGAAACGAACAAAGAAAAUCUGGGCCAGGCAGGCGUCAAAAGAAAUAGCCUUGCGCCCAACCAGAAAGUCUGUAAUCAUUUUAAGGGUA [A33G U37C U57C A86G U100C U108C], the self-cleavage was 0.01. GUUAACGGUCAUAGGCCAUGGAAACUAGGAGCGCCACUUCGCUGCCAGUGAAGAGAUGAACAAAGAAAAUCUGGGCCAGGCAGGCAUCAAAAGAAAUAGUCUUGCGCUCAACCAGAAAGUCUGCAAUCAUUUUAAGGGUA [A33G U37C A55G U124C] gave a self-cleavage of 0.76. With GUUAACGGUCAUAGGCCAUGGAAACUAGGAGCGCCAUCUCGCUGCCAGUGAAGAAAUGAACAAAGAAAAUCUGGGCCAGGCAGGCAUCAAAAGAAUUAGUCUUGCGCUCAACCAGAAAGUCUGUAAUCAUUUUAAGGGUA [A33G U38C A96U] the self-cleavage was 1.96.
